ChEMBL document CHEMBL5052851, “Mettl3 modulators” (2021)

Columns and labels:
[1] = Inhibition of METTL16 (unknown origin) using CGAUACAGAGAAGAUUAGCAUACGCAAAUUCGUGAAGCG-biotin and SAM as substrates preincubated for 5 mins followed by substrate addition incubated for 220 mins by TopCount scintillation counting method; parameters: species or system Homo sapiens
[2] = tested on: MOLM-13; assay: Antiproliferative activity against human MOLM-13 cells after 96 hrs by Cell Titer-Glo assay; format: functional, cell-based; conditions: MOLM-13, 96 h
[3] = target: T1, N6-adenosine-methyltransferase catalytic subunit (Homo sapiens, UniProt Q86U44); assay: Inhibition of METTL3 (unknown origin) using UCUGGACUAAA-biotin and 3H-SAM as substrates preincubated for 5 mins followed by substrate addition incubated for 30 mins by TopCount scintillation counting method
T1 sequence (Q86U44 whole entry): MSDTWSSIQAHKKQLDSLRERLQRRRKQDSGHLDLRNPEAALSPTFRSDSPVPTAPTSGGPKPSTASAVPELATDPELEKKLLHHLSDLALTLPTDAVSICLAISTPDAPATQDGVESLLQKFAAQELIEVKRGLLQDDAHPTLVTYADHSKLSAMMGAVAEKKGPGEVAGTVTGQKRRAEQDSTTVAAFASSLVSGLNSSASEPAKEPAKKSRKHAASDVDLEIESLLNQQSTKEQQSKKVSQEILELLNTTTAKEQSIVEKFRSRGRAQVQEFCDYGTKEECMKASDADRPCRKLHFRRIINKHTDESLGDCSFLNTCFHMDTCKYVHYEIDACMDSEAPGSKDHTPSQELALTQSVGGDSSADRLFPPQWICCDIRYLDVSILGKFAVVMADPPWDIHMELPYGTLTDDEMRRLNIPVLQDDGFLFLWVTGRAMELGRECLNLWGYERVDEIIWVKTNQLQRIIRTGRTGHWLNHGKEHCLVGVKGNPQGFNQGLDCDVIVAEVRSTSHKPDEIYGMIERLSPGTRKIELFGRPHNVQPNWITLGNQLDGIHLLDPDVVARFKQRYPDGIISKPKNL

[4] = target: T1, N6-adenosine-methyltransferase catalytic subunit; assay: Inhibition of METTL3-mediated m6A methylation in human MOLM-13 cells assessed as reduction in mRNA level measured after 24 hrs by LC-MS/MS analysis; format: cell-based
[5] = tested on: MOLM-13; assay: Antiproliferative activity against human MOLM-13 cells after 48 hrs by Cell Titer-Glo assay; format: functional, cell-based; conditions: MOLM-13, 48 h

Structure (SMILES)	IC50 [1]	IC50 [2]	IC50 [3]	IC50 [4]	IC50 [5]
Cn1ccc(-c2cn(-c3cncc(CCc4ccc5cc(Br)c(N)nc5c4)c3)c3ncnc(N)c23)n1	≥ 1000 nM	1000 nM	≥ 1000 nM		
CNc1ccc2ccc(OCc3cncc(-n4c(C)cc5c(N)ncnc54)c3)cc2n1	≥ 1000 nM			1000 nM	1000 nM
Nc1nc2cc(OCc3cncc(-n4ccc5c(N)ncnc54)c3)ccc2cc1Br	≥ 1000 nM	≥ 10000 nM	≥ 1000 nM		
CNc1ccc2ccc(OCc3cccc(-n4cc(Cl)c5c(N)ncnc54)c3)cc2n1	≥ 1000 nM	1000 nM			1000 nM
Cc1cc(NCCN(C)C)c2ccc(OCc3cncc(-n4cc(Cl)c5c(N)ncnc54)c3)cc2n1	≥ 1000 nM				< 1000 nM
CNc1ccc2ccc(OCc3cncc(-n4cc(C5CCCC5)c5c(N)ncnc54)n3)cc2n1			≤ 100 nM	≥ 10000 nM	1000 nM
Cc1cc(N)c2ccc(OCc3cncc(-n4ccc5c(N)ncnc54)c3)cc2n1	≥ 1000 nM	≥ 10000 nM			
CCc1cc(NCCN(C)C)c2c(F)cc(CCc3cncc(-n4cc(-c5ccn(C)n5)c5c(N)ncnc54)c3)cc2n1		< 1000 nM	< 10 nM	1000 nM	
CCc1cc(NCCOC)c2ncc(OCc3cncc(-n4cc(-c5ccn(C)n5)c5c(N)ncnc54)c3)cc2n1		< 1000 nM	< 10 nM	1000 nM	
CCc1cc(N(C)CC2CC2)c2ccc(OCc3cncc(-n4cc(-c5ccn(C)n5)c5c(N)ncnc54)c3)cc2n1		< 1000 nM	< 10 nM	1000 nM	
CCc1cc(N2CCOCC2)c2ccc(OCc3cncc(-n4ccc5c(N)ncnc54)c3)cc2n1		1000 nM	< 10 nM	1000 nM	
Cn1ccc(-c2cn(-c3cncc(CCc4ccc5ccc(N6CCC6)nc5c4)c3)c3ncnc(N)c23)n1		< 1000 nM	< 10 nM	< 1000 nM	
CNc1ccc2ccc(CCc3cncc(-n4ccc5c(N)ncnc54)c3)cc2n1	≥ 1000 nM			1000 nM	1000 nM
COCCn1ccc(-c2cn(-c3cncc(COc4ccc5ccc(N6CCC6)nc5c4)c3)c3ncnc(N)c23)n1		< 1000 nM	< 10 nM	< 1000 nM	
CCc1cc(NCCOC)c2ccc(OCc3cncc(-c4c[nH]c5c(N)ncnc45)c3)cc2n1			< 10 nM		≥ 10000 nM
CNc1ccc2ccc(CCc3cncc(-n4cc(C5CCCC5)c5c(N)ncnc54)n3)cc2n1	≥ 1000 nM		< 10 nM	1000 nM	

Structure (SMILES)	IC50 [1]	IC50 [2]	IC50 [3]	IC50 [4]	IC50 [5]
CNc1ccc2ccc(OCc3cncc(-n4cc(-c5ncco5)c5c(N)ncnc54)c3)cc2n1	≥ 1000 nM	≥ 10000 nM	< 10 nM		
CCNc1ccc2ccc(CCc3cncc(-n4cc(-c5ccn(C)n5)c5c(N)ncnc54)c3)cc2n1		< 1000 nM	< 10 nM	< 1000 nM	
CNc1ccc2ccc(OCc3cc(CO)cc(-c4c[nH]c5c(N)ncnc45)c3)cc2n1			< 10 nM	≥ 10000 nM	≥ 10000 nM
CCc1cc(NCCN(C)C)c2ccc(OCc3cncc(-n4ccc5c(N)ncnc54)c3)cc2n1			< 10 nM		1000 nM
Cc1nc(-c2cn(-c3cncc(COc4ccc5ccc(N6CCC6)nc5c4)c3)c3ncnc(N)c23)co1		1000 nM	< 10 nM		
CNc1ccc2ccc(OCc3cncc(-n4cc(-c5ccc(C)o5)c5c(N)ncnc54)c3)cc2n1	≥ 1000 nM	1000 nM	< 10 nM	1000 nM	
CCc1cc(N(C)CCOC)c2ccc(CCc3cncc(-n4cc(-c5ccn(C)n5)c5c(N)ncnc54)c3)cc2n1	≥ 1000 nM	< 1000 nM			
CCNc1ccc2ccc(OCc3cncc(-n4cc([C@@H]5CCCO5)c5c(N)ncnc54)c3)cc2n1		< 1000 nM	< 10 nM		
Cn1ccc(-c2cn(-c3cncc(CCc4ccc5ccc(N)nc5c4)c3)c3ncnc(N)c23)n1	≥ 1000 nM	1000 nM	< 10 nM		
CNc1ccc2ccc(OCc3cc(Br)cc(-n4cc(Cl)c5c(N)ncnc54)c3)cc2n1	≥ 1000 nM	1000 nM			
CNc1ccc2ccc(OCc3cncc(-n4cc([C@H]5CCCO5)c5c(N)ncnc54)c3)cc2n1	≥ 1000 nM	< 1000 nM	< 10 nM	1000 nM	
CNc1ccc2ccc(OCc3cncc(-n4cc(Cl)c5c(N)ncnc54)n3)cc2n1			< 10 nM	1000 nM	
CN(C)CCNc1cc(C2CCC2)nc2cc(OCc3cncc(-n4ccc5c(N)ncnc54)c3)ccc12		< 1000 nM	< 10 nM	1000 nM	
CNc1ccc2ccc(OCc3cncc(-n4cc([C@@H]5CCCO5)c5c(N)ncnc54)c3)cc2n1	≥ 1000 nM	1000 nM	< 10 nM	< 1000 nM	
CCNc1ccc2ccc(OCc3cccc(-n4cc(Cl)c5c(N)ncnc54)c3)cc2n1	≥ 1000 nM	1000 nM			

Other lines, results leading:

IC50 [1]	IC50 [2]	IC50 [3]	IC50 [4]	IC50 [5]	Structure (SMILES)
≥ 1000 nM	1000 nM	< 10 nM			CCc1cc(N2CCC(F)(F)CC2)c2ccc(OCc3cncc(-n4ccc5c(N)ncnc54)c3)cc2n1
	< 1000 nM	< 10 nM	1000 nM		CCc1cc(NC)c2ccc(OCc3cncc(-n4cc(-c5ccn(C)n5)c5c(N)ncnc54)c3)cc2n1
≥ 1000 nM	1000 nM	< 10 nM			CNc1ccc2ccc(CCc3cncc(-n4cc(F)c5c(N)ncnc54)c3)cc2n1
≥ 1000 nM		< 10 nM	≥ 10000 nM	< 1000 nM	CNc1ccc2ccc(OCc3cncc(-n4cc(-c5ccnn5C)c5c(N)ncnc54)c3)cc2n1
≥ 1000 nM	< 1000 nM	< 10 nM			CCc1cc(NC)c2ccc(CCc3cncc(-n4cc(-c5ccn(C)n5)c5c(N)ncnc54)c3)cc2n1
		< 10 nM	1000 nM		CC(C)c1nc(NCCN(C)C)c2ccc(OCc3cncc(-n4ccc5c(N)ncnc54)c3)cc2n1
	< 1000 nM	< 10 nM	1000 nM		CCc1cc(N(C)C2CC2)c2ccc(OCc3cncc(-n4cc(-c5ccn(C)n5)c5c(N)ncnc54)c3)cc2n1
		< 10 nM	≥ 10000 nM	< 1000 nM	CNc1ccc2ccc(OCc3cncc(-n4cc(C)c5c(N)ncnc54)c3)cc2n1
≥ 1000 nM	< 1000 nM	< 10 nM	< 1000 nM		CCc1cc(NCCOC)c2ccc(CCc3cncc(-n4cc(-c5ccn(C)n5)c5c(N)ncnc54)c3)cc2n1
≥ 1000 nM	≥ 10000 nM	< 10 nM			CCc1cc(NCCCN(C)C)c2ccc(CCc3cncc(-n4ccc5c(N)ncnc54)c3)cc2n1
	< 1000 nM	< 10 nM	1000 nM		CCc1cc(N(C)CCN(C)C)c2ccc(CCc3cncc(-n4cc(-c5ccn(C)n5)c5c(N)ncnc54)c3)cc2n1
	1000 nM	< 10 nM	1000 nM		CNc1ccc2ccc(OCc3cncc(-n4cc(-c5ccc(CNCCS(C)(=O)=O)o5)c5c(N)ncnc54)c3)cc2n1
≥ 1000 nM		< 10 nM	≥ 10000 nM		CCc1cc(N)c2ccc(OCc3cncc(-n4cc(Cl)c5c(N)ncnc54)c3)cc2n1
		< 10 nM	1000 nM	< 1000 nM	CCc1cc(N)c2ccc(OCc3cncc(-n4cc(C5CCCC5)c5c(N)ncnc54)c3)cc2n1
≥ 1000 nM	1000 nM	< 10 nM			CNc1ccc2ccc(OCc3cncc(-n4cc(C(C)C5CC5)c5c(N)ncnc54)c3)cc2n1 (configuration not stated)
		< 10 nM	1000 nM	1000 nM	CCc1cc(NCCOC)c2ccc(OCc3cncc(-n4ccc5c(N)ncnc54)c3)cc2n1
		< 10 nM	1000 nM	1000 nM	CNc1ccc2ccc(OCc3cncc(-n4ccc5c(N)ncnc54)n3)cc2n1
	< 1000 nM	< 10 nM	≥ 10000 nM		CCc1cc(N(C)C)c2ccc(OCc3cncc(-n4cc(-c5ccn(C)n5)c5c(N)ncnc54)c3)cc2n1
	1000 nM	< 10 nM	≥ 10000 nM		CNc1cc(CCCN2CCOCC2)c2ccc(OCc3cncc(-n4ccc5c(N)ncnc54)c3)cc2n1
		< 10 nM	1000 nM	1000 nM	CNc1ccc2ccc(OCc3cncc(-c4cn(C5CCCC5)c5c(N)ncnc45)c3)cc2n1
	< 1000 nM	< 10 nM	1000 nM		CC(C)c1cc(N2CCNCC2)c2ccc(OCc3cncc(-n4ccc5c(N)ncnc54)c3)cc2n1
≥ 1000 nM	< 1000 nM	< 10 nM	1000 nM		CCc1cc(N2CCNCC2)c2ccc(OCc3cncc(-n4cc(-c5ccn(C)n5)c5c(N)ncnc54)c3)cc2n1
≥ 1000 nM	1000 nM	< 10 nM	1000 nM		CCNc1ccc2ccc(OCc3cncc(-n4cc(-c5ccn(C)n5)c5c(N)ncnc54)c3)cc2n1
	1000 nM	< 10 nM		≥ 10000 nM	CNc1ccc2ccc(OCc3cc(CO)cc(-n4ccc5c(N)ncnc54)c3)cc2n1
	1000 nM	< 10 nM	≥ 10000 nM		CCc1cc(NCCN(C)C)c2c(F)cc(OCc3cncc(-n4cc(-c5ccn(C)n5)c5c(N)ncnc54)c3)cc2n1
	1000 nM	< 10 nM		1000 nM	CC(C)c1cc(N)c2ccc(OCc3cncc(-n4ccc5c(N)ncnc54)c3)cc2n1
	< 1000 nM	< 10 nM	< 1000 nM		Nc1ncnc2c1c([C@@H]1CCCO1)cn2-c1cncc(COc2ccc3ccc(N4CCC4)nc3c2)c1
		< 10 nM	< 1000 nM	< 1000 nM	CNc1ccc2ccc(CCc3cncc(-n4cc(-c5ccn(C)n5)c5c(N)ncnc54)c3)cc2n1
≥ 1000 nM	1000 nM	< 10 nM	1000 nM		Nc1ncnc2c1c(C1CCCO1)cn2-c1cncc(CCc2ccc3ccc(N4CCC4)nc3c2)c1 (configuration not stated)
